Measured values reported in PMC12136788.
The list shows a part of the results.

T1: UNK ZnF1-3 (human, UniProt Q9C0B0 31-174)
T1 sequence: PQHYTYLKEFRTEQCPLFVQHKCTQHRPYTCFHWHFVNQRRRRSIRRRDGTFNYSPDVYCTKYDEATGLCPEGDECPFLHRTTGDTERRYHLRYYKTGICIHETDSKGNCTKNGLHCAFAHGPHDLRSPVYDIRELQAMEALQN

B1: chrX:119742084:119742085:+_ENSG00000232119_ENST00000371317|hu_mus|FALSE|FALSE (ssRNA)
RNA: GGGAGUUCUACAGUCCGACGAUCAAAAGGAUAUUUAUGAAGUAAUCUUAAAGUUGGAUAAAAAGGCCCUUCUCUUUGUCUAAAAAACAGUAAUUCUCCAUUUACUGUAAGGAUUUCUAUGUGUUCAUGGCAUCGGACAAUUUUCAACAGAGGAUUGAGCAUCA
B2: chr1:130485734:130485735:-_ENSMUSG00000045382_ENSMUST00000052172|mus_mus|mus_mus_mus_hu_False|78_88 (ssRNA)
RNA: GGGAGUUCUACAGUCCGACGAUCGAUGAAGGAGUCGAUGCUGAUCCCCACAUAAUAUGGCAGCCAGCAGGCGAAGAAAGCCAGGAUGAGGAUGACUGUGGUCUUGAGGGCCUUGCGCUUCUGGUGGCCCUUGGAGUGUGACAGCAACAGAGGAUUGAGCAUCA
B3: 194672613_194672733_1323_3pUTR_ENSMUSG00000016262_ENSMUST00000016406|mouse|control|control (ssRNA)
RNA: GGGAGUUCUACAGUCCGACGAUCGCUCCUUUUUCCUCAAAGACUUUUUCCAAGACUCACUCACACGGUUUCUCUCAUUAUAUCCAGUCUCAAAAUAAUCGUAAAAUUGGCCUUUGCACUCAAAAUCAAGGUCGUUCCCCACAGCAACAGAGGAUUGAGCAUCA
B4: chr8:74858975:74858976:-_ENSG00000154582_ENST00000284811|hu_mus|hu_hu_hu_mus_True|18_68 (ssRNA)
RNA: GGGAGUUCUACAGUCCGACGAUCGACCUUGUAGGUAAAAUACAUGCACACUUUUGAUAGCACAUGUGAAGGUAUCUCUCUAAAAUUGACCUCGUUGGUUUCAUUCUCAGCAAACUGACCUGGGCCACUCAACAUAGCCUUUAUCAACAGAGGAUUGAGCAUCA
B5: 31022552_31023692_238_3pUTR_ENSMUSG00000000194_ENSMUST00000056433|mouse|control|control (ssRNA)
RNA: GGGAGUUCUACAGUCCGACGAUCGAAUCCGAUCUCAGCAUCCUUGUCCGUGGCUCCCUCAGGCUCGUUCACAGAGAGGCUGCUGACGUUGACCACCAUGUACCCAUCCUUGAAGAACCCGAAGGUGUUGAGAUGGACUUUAUGCAACAGAGGAUUGAGCAUCA
B6: chrX:114877694:114877695:+_ENSG00000102024_ENST00000355899|hu_mus|motif|central (ssRNA)
RNA: GGGAGUUCUACAGUCCGACGAUCGUUCAGUUUGGGGUUUCCGCUGACAACAUCAGCUGGAGUAACGAACUGUCUGCAACCGGAUUUAUCUGCUUGUUGAAGCAUACUUUCGGCUCUCUUUAAAUCAUCAGUUUCAUUGAAACCCAACAGAGGAUUGAGCAUCA
B7: 61661049_61662668_991_CDS_ENSG00000136485_ENST00000310827|human|control|control (ssRNA)
RNA: GGGAGUUCUACAGUCCGACGAUCUGAAUGUGGGGCCCAAGCAAUGCCAUUGACACAUGCUCGAUGGUUGUUUAACCUGGCGACAGGUGUGCAGGGAACCCGGACAUCUAGAAUCACCACCUCCAUUCCAUCCAUGGCCAUGGUCAACAGAGGAUUGAGCAUCA
B8: chr12:45699863:45699864:+_ENSMUSG00000020598_ENSMUST00000020939|mus_mus|motif|central (ssRNA)
RNA: GGGAGUUCUACAGUCCGACGAUCUGCAGCAUGUCUCAUGCAUCGUAUUGAACUGGAUCCCGCACAGGGAAUAAUGUAAUCGGUUGAUGAUGUUGUAUUUCUUUUUAAUCAGUUCCAAGGAAAUUGAGAAAAACCCCACUCUGACAACAGAGGAUUGAGCAUCA
B9: chr1:59925254:59925255:+_ENSMUSG00000067336_ENSMUST00000087435|mus_mus|motif|central (ssRNA)
RNA: GGGAGUUCUACAGUCCGACGAUCAUCUUGUUCUGAACAUGGAUUGCUGUUGUUGUUAUUGGAAUUUGUUCGGCCACCUUCGGAUGGCCGUUCCCUCCUAUCUACCAAACGAUCCAGAACCCCUUCAUCAUGGCCAGCCUGUUGCAACAGAGGAUUGAGCAUCA
B10: chr6:38652254:38652255:-_ENSG00000124767_ENST00000373365|hu_hu|motif|central (ssRNA)
RNA: GGGAGUUCUACAGUCCGACGAUCUGAAAACUUCAUAAUGGGAAAAUCACAUUUUUGGAUUAGCGUCAUUCCAAGAACUCGGGUAUAAAAAUCCAGUGACUUCUUAGGAUCCUUCACUCGUAGCAUGGUCUGCUGCAAUAGAAACAACAGAGGAUUGAGCAUCA
B11: 406267_416132_4476_CDS_ENSG00000073614_ENST00000399788|human|control|control (ssRNA)
RNA: GGGAGUUCUACAGUCCGACGAUCCCACAUGUGGGUCACCACCUCCUCGGAUUUGAUGGGAAUCUCUUCAUCACAAAAAAGAUUGGGUUCAAGACUACUAGAGGACUUCACACUGGCUGUGUCCUUCAUGUCGUAGCCAUAUGUCAACAGAGGAUUGAGCAUCA
B12: 164712118_164712570_1168_3pUTR_ENSMUSG00000039849_ENSMUST00000041643|mouse|control|control (ssRNA)
RNA: GGGAGUUCUACAGUCCGACGAUCGGGGAUGCACUCCUGGACUCAAUGAGCCGCCUGGCAGCUUCUGCGUAUUUAAAGAGCAGGCGUUUGGCUUCCUCCCGGAACUUGAUUCGGGAUAACCUGAUGGGAAUGUCAUUCAUAAUUCAACAGAGGAUUGAGCAUCA
B13: chr4:4237396:4237397:-_ENSG00000132406_ENST00000382753|hu_hu|FALSE|FALSE (ssRNA)
RNA: GGGAGUUCUACAGUCCGACGAUCUAAAACUUCACAUUAGGAAAUGCUAAAAACCCAGUAAUGUACAUAAUGAUAAAAUCUAAAGUGAUGAGAAAACAUAAAAUAUUUUCAUUUGGUCCUGUCACCUAACAAAACUAUCAUAAACAACAGAGGAUUGAGCAUCA
B14: 19496024_19497373_3613_CDS_ENSG00000127481_ENST00000375254|human|control|control (ssRNA)
RNA: GGGAGUUCUACAGUCCGACGAUCACCCAGAGUAUUUGCCUUGCACCUGCUAGAGCCAAUAGCCAAAACAGCAGCAAAGCCUUGCAGUUUCUCCUUGGAAGGUUUCUCAGUUGUUCCCUCUUCAUUAAAGUUUUGCAGCAAAUACAACAGAGGAUUGAGCAUCA
B15: chr4:106720893:106720894:+_ENSMUSG00000061887_ENSMUST00000030367|mus_mus|FALSE|FALSE (ssRNA)
RNA: GGGAGUUCUACAGUCCGACGAUCAAACCAACAAAAAGUGUCAUGUACAGAAAGGUCCUUUUGGGCGGGAAGAAGGUGAGAGUUUUCUGGCCGUUGACUUGAAAUAUAUUUUUGAGUUUUGUCCUUCAUGUUUUACGGAAUAAACAACAGAGGAUUGAGCAUCA
B16: chr7:107985766:107985767:+_ENSMUSG00000029461_ENSMUST00000049053|mus_hu|motif|central (ssRNA)
RNA: GGGAGUUCUACAGUCCGACGAUCCCCUAGGUAAAUUUUUGUAAGCAAGGUGCCCACUAGGUAGGAAGGCUGCAUUUAAUGCGGAUUUACUGUAAGGUCUAGGGAAGUCCUUUCCGCUUCUCUGGGCCUCAGUUUCCUCAUCUGCAACAGAGGAUUGAGCAUCA
B17: chr16:20935853:20935854:+_ENSG00000102897_ENST00000219168|hu_hu|FALSE|FALSE (ssRNA)
RNA: GGGAGUUCUACAGUCCGACGAUCAAGGGUCAAAAGACAACAAAAAAGCACACACCAAAAAACCUCACUUUAAGCAAAUCUAUAACUUGAAAAAAAAAAAGCCUAAGAAUAUUCUGAGAGUGGUACAUAGUUUUAUAGUAGCCACAACAGAGGAUUGAGCAUCA
B18: chrX:140365796:140365797:-_ENSMUSG00000031285_ENSMUST00000033642|mus_mus|mus_mus_mus_hu_False|1_78 (ssRNA)
RNA: GGGAGUUCUACAGUCCGACGAUCCUUCUCAUUACUCAGUGCCUGCAAGGUUCUGGUUCUGUAGAAGCUACAGUGGGCGCUGUGAGUGGGGCUAGGCAACCCAUUCAUCCGGGAGCCUCGCAUGUUCCUGGAUGUCUUGUCUCGCAACAGAGGAUUGAGCAUCA
B19: chr3:139075876:139075877:+_ENSG00000175110_ENST00000310776|hu_mus|FALSE|FALSE (ssRNA)
RNA: GGGAGUUCUACAGUCCGACGAUCCCAAGAUUUUUAAAUGUUCAGCUUAGUAUUACCAAAAUGGAAGGGCAUUACUAUGAAAUGUGUUUUUAACUGUUCUCAGGAUGCUGCGGAAUGACUGGUAACUAUUUCUUGAUAAGUUUGCAACAGAGGAUUGAGCAUCA
B20: chr11:87794976:87794977:-_ENSMUSG00000020483_ENSMUST00000020775|perfect_dup|FALSE|FALSE (ssRNA)
RNA: GGGAGUUCUACAGUCCGACGAUCGCAACGCCGCCUGCUUGCCAUCGCUGCCGCCGCCACGGACACCUUCGCCUCGGCCACCUAGCCCGACUUGAAGAGGAGGAUUGCAACUUGACCCAAGUAAAAAUAGAUGAAGUGCUUUGUCAACAGAGGAUUGAGCAUCA
B21: chr1:220276048:220276049:+_ENSG00000067704_ENST00000302637|hu_hu|hu_hu_hu_mus_True|98_108 (ssRNA)
RNA: GGGAGUUCUACAGUCCGACGAUCGCAAACAGCUUCAUUGGCUGGAAUUGUCCAAGGCUGGGUGGUCCAAACUAAAACGCUAACAGGGGAUGAGGCAUCUGUAAGAGACUCCAACUUCGGAGGAGGUCUCAGGAGGGGGAAUCUCAACAGAGGAUUGAGCAUCA
B22: chr17:88987509:88987510:+_ENSMUSG00000034709_ENSMUST00000038551|mus_mus|FALSE|FALSE (ssRNA)
RNA: GGGAGUUCUACAGUCCGACGAUCGGAAGGGGAGGGAAAGGGAUGGAGAGACAUGGCAAGGGAGAGACUCUUUUAAAAGGAAUCUGAGAUGUCUUUCAGUUUUCAAUUAUAGGAAGAAAUGACAAUACAGGAAGUAAUGACAUCCAACAGAGGAUUGAGCAUCA

Biological target: T1, UNK ZnF1-3
Assay: nsRBNS (natural sequence RNA bind-n-seq); RBNS binding buffer (assumed for nsRBNS): 25 mM Tris pH 7.5, 150 mM KCl, 3 mM MgCl2, 0.01% Triton X-100, 500 ug/ml BSA, 20 U/ml SUPERase-In, 4 C; UNK is unkempt and MSI1 is Musashi-1; names of the RNAs are library labels; protein concentration not given here; high values mean tight binding

Binder | binding signal [enrichment R]
B1 | 0.58
B2 | 1.26
B3 | 1.19
B4 | 0.594
B5 | 0.392
B6 | 0.485
B7 | 0.757
B8 | 1.32
B9 | 0.592
B10 | 0.51
B11 | 1.02
B12 | 0.859
B13 | 0.724
B14 | 1.06
B15 | 1.41
B16 | 0.778
B17 | 2.03
B18 | 0.463
B19 | 1.24
B20 | 1.94
B21 | 2.21
B22 | 1.62
